From PubChem BioAssay AID1508642 (National Center for Advancing Translational Sciences (NCATS), 2021)
Hit rate of the full screen: of about 43,000 compounds, about 200 (0.47%) were called active. About 12% were inconclusive and are not listed. Calls follow the shape of the dose curve; as a rule, active = well fitted cell-killing curve with a large enough effect; inconclusive = small, poorly fitted or top-dose-only effect, or effect the other way; inactive = flat fitted curve, though single readings scatter. The list shows a part of the results.

Assay: Cell viability qHTS assay in S16 Pmp22-F2sN cells; also: nearly all actives have a fitted effect of over 65% in size
Settings: S16 Pmp22-F2sN Schwann cells viability, CellTiter-Glo, 24 h; series mostly up to 57.5 µM; activity change, negative = cytotoxicity: at the top concentration
How it was run: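 Viability was measured by CellTiter-Glo luminescence (15 min, room temperature). This followed 24 h at 37 °C of compound exposure (23 nL pin transfer) in S16 Pmp22-F2sN Schwann cells, 500-1,000 per well.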
% is scaled to controls: 0 for no effect and ±100 for the full control effect.

Compound | activity change, negative = cytotoxicity
CCCCc1ccc(NC(=O)c2ccc(=O)n(Cc3cccc(C)c3)c2)cc1 | inactive: -29.4%
Cc1ccc2c(c1)-c1c(cnc3cc(-c4ccccc4)nn13)CO2 | inactive: 15.7%
COc1ccc(-c2nc(C)c(CCNS(=O)(=O)c3cc(C)c(C)cc3C)s2)cc1 | inactive: 17.6%
O=C(NCCc1ccccc1)c1nnc(Cc2cccc(F)c2)o1 | inactive: -18.3%
CN(C)CCNC(=O)c1ccc2c(=O)n3c(nc2c1)CCCCC3 | inactive: -0.827%
CCOC(=O)c1cccnc1SCC(=O)Nc1ccc(C)cc1C | inactive: -6.19%
CCC(C)NC(=O)c1ccc2c(c1)N(Cc1ccccc1)C(=O)c1ccccc1S2 (stereo not drawn) | inactive: 9.78%
COc1cccc(N2CCN(C(=O)CCc3c(C)nc4c(c3C)c(=O)n(C)c(=O)n4C)CC2)c1 | inactive: 16.3%
CCOc1ccc(CNC(=O)C2CCCN(S(=O)(=O)c3ccc4c(ccn4C)c3)C2)cc1 (stereo not drawn) | inactive: -21.3%
CC(C)Oc1ccc(CNC(=O)c2cc3ccccn3n2)cc1 | inactive: -10.5%
Cc1ccc(CCNC(=O)CCCn2nc(C)c3c(C)n(-c4ccccc4)nc3c2=O)cc1 | inactive: 13.1%
COc1cccc(-c2cc(C(=O)Nc3cc(Cl)ccc3O)on2)c1 | inactive: -10.4%
Cc1ccc(-n2nnnc2CNC(=O)C(C)(C)C)cc1C | inactive: -0.869%
Cc1nc(SC(C)C(=O)Nc2ccccc2C)cc(-c2ccccc2)n1 (stereo not drawn) | inactive: -8.11%
Cc1ccc(NC(=O)CN(C)S(=O)(=O)c2ccc3c(c2)n(C)c(=O)c(=O)n3C)cc1C | inactive: -0.0494%
Cc1ccc(-c2nc3c4ccccc4n(CC(=O)N4CCN(c5ccccc5F)CC4)c(=O)n3n2)cc1 | inactive: -2.34%
CCn1c2ccccc2c2nnc(SCC(=O)O)nc21 | inactive: 0.138%
Cc1ccccc1C(=O)c1cccn1CC(=O)NCc1ccccc1 | inactive: -0.296%
CCOc1ccc(CCNC(=O)Cn2nc(C)n3c(cc4occc43)c2=O)cc1OCC | inactive: 0.0431%
Cc1ccc(C)c(NC(=O)CN2C(=O)CCc3ccccc32)c1 | inactive: 12.1%
Cc1ccc(S(=O)(=O)N(CC(O)Cn2c3ccccc3c3ccccc32)c2cccc(C(N)=O)c2)cc1 (stereo not drawn) | inactive: -12.8%

Compound | activity change, negative = cytotoxicity
CCc1ccc(NC(=O)c2ccc3c(O)c(S(=O)(=O)c4ccc(Cl)cc4)c(=O)[nH]c3c2)cc1 | inactive: -3.58%
Cc1cccc(OC(C)C(=O)Nc2ncn[nH]2)c1 (stereo not drawn) | inactive: 6.94%
CCCCN(CC)CCCNC(=O)c1sc2nc(C)cc(C)c2c1-n1cccc1 | inactive: -2.43%
COc1ccc(CN(C(=O)COc2ccccc2OC)C2CCS(=O)(=O)C2)cc1 (stereo not drawn) | inactive: 12.2%
CCOC(=O)C1CCCN(S(=O)(=O)c2ccc(F)c(C(=O)Nc3ccc(F)c(F)c3)c2)C1 (stereo not drawn) | inactive: -12.5%
Cc1cccc2nc(-c3ccco3)c(Nc3ccc4c(c3)OCO4)n12 | inactive: -0.291%
CCN(CC)c1cc(C)c2cc(NC(=O)c3cccc(OC)c3)ccc2n1 | inactive: -3.67%
CCOC(=O)c1c(NC(=O)/C=C/c2ccc(OCC)cc2)sc(C)c1C | inactive: 8.53%
COC(=O)C(NC(=O)CC(C)C)(Nc1nc2c(s1)CCCC2)C(F)(F)F (stereo not drawn) | inactive: -1.44%
Cc1cc(C)c(NC(=O)Cn2c(=O)n(CC(=O)NCc3ccccc3Cl)c(=O)c3sccc32)c(C)c1 | inactive: -7.85%
CC(=O)c1cc2c(cc1N/C(=N/S(=O)(=O)c1ccc(C)cc1)c1ccccc1)OCO2 | inactive: -5.69%
COC(=O)c1ccc(NC(=O)CCS(=O)(=O)c2ccc(Br)cc2)cc1 | inactive: -11.5%
COc1ccc(-c2cc(C(=O)O)n(Cc3ccccc3)n2)cc1 | inactive: 4%
COc1ccc(C(=O)NC2(C(F)(F)F)C(=O)NC(C)=C2C#N)cc1OC (stereo not drawn) | inactive: 3.65%
CCC(=O)N1CCc2cc(Br)cc(S(=O)(=O)N3CCC(C(=O)Nc4ccc(OC)cc4)CC3)c21 | inactive: -2.2%
O=C(CSc1nc2ccccc2nc1Cc1ccccc1)NCc1ccccc1Cl | inactive: -7.59%
CCc1cnc2c(c1SCC(=O)N1CCCCC1)c(=O)n(C)c(=O)n2C | inactive: 1.66%
CCCCOc1ccc(C(=O)NCCS(=O)(=O)N2CCN(c3ccc(F)cc3)CC2)cc1 | inactive: -0.0441%
CC1CCCN(CCCNC(=O)c2ccc3c(c2)N(Cc2ccccc2F)C(=O)c2ccccc2S3(=O)=O)C1 (stereo not drawn) | inactive: -4.88%
CCc1ccccc1NC(=O)Nc1c[nH]c(=O)[nH]c1=O | inactive: 4.35%
COc1cc(C(=O)Oc2c(Sc3ccccc3)c(C)nn2-c2ccccc2)cc(OC)c1OC | inactive: 2.72%

Compound | activity change, negative = cytotoxicity
Cc1ccc(/C=C/c2onc(C)c2S(=O)(=O)N2CCC(C(=O)Nc3ccc(C)c(N(C)C)c3)CC2)cc1 | inactive: 10.7%
Cc1ccc(CNC(=O)CCCCCn2c(=O)[nH]c3ccccc3c2=O)cc1 | inactive: 0.248%
Cc1nn(-c2ccccc2)c(OC(=O)C(C)C)c1Sc1ccc(Cl)cc1 | inactive: -3.41%
CC(C)(C)c1ccc(NC(=O)C2CCCN(c3cnccn3)C2)cc1 (stereo not drawn) | inactive: -25%
CCOc1ccc(N2CC(NC(=O)CCc3ccccc3)CC2=O)cc1 (stereo not drawn) | inactive: 10.5%
Cc1ccccc1-c1nc(CN2CCC(C(=O)NCc3ccccc3Cl)CC2)c(C)o1 | inactive: -2.37%
CCc1nnc(NC(=O)CSc2nccn2-c2ccc(OC)cc2)s1 | inactive: -4.21%
CCn1c(C)c(C2N3CC4(C)CN2CC(C)(C3)C4=O)c2ccccc21 (stereo not drawn) | inactive: 7.19%
CSc1ccc(CCNC(=O)c2cnc3c(C)cccn3c2=O)cc1 | inactive: -2.36%
Cc1ccc(C)c(CN2C(=O)c3ccccc3S(=O)(=O)c3ccc(C(=O)N(C)C4CCCCC4)cc32)c1 | inactive: -3.51%
CC(=O)c1cc2c(cc1N/C(=N/S(=O)(=O)c1ccc(Cl)cc1)c1ccc(F)cc1)OCO2 | inactive: -3.52%
CC(=O)c1cccc(-n2c(=O)c3c4c(sc3n(CC(=O)c3ccccc3)c2=O)CN(C(C)=O)CC4)c1 | inactive: -3.22%
Cc1nc(C)c(-c2ccc(SCC(=O)Nc3ccc(Br)cc3)nn2)s1 | inactive: -5.26%
Cc1nc(-n2nc(C)c(Cc3ccccc3Cl)c2C)sc1C(=O)Nc1ccccc1F | inactive: 11.8%
Cc1ccc(-c2noc(C(C)NS(=O)(=O)c3ccc(C)cc3)n2)cc1 (stereo not drawn) | inactive: -4.09%
COc1ccc(CNC(=O)Cc2c(C)c3cc4c(C)coc4c(C)c3oc2=O)cc1 | inactive: 6.18%
O=C(Nc1cccc(Cl)c1)c1cnc2sc(N3CCCC3)nn2c1=O | inactive: -18.4%
CN1C(=O)Cc2cc(S(=O)(=O)N3CCN(c4ccccc4F)CC3)ccc21 | inactive: 4.81%
Cc1ccc(C)c(CN2CCCN(Cc3ccc(F)cc3)S2(=O)=O)c1 | inactive: 2.98%
COc1ccccc1NC(=O)C(=O)NCC(c1ccc2c(c1)OCO2)N1CCOCC1 (stereo not drawn) | inactive: 14.1%
COc1ccccc1/C=C/c1nc2ccccc2n1C(C)C | inactive: -1%
